# Laboratory results published in PubChem BioAssay AID504333 (National Center for Advancing Translational Sciences (NCATS), 2011).
# Hit rate of the full screen: of about 360,000 compounds, about 16,000 (4.4%) were called active. Inconclusive means that the source gave no clear call. Such entries were picked first, then a sample of the others. The call rests on the fitted dose curve; in most records, active means well fitted inhibition curve with a large enough effect; inconclusive means small, poorly fitted or top-dose-only effect; inactive means no such curve, though single readings can be large or run the other way. Potencies beside an inconclusive call are fits to weak or partial responses and may not hold up. A structure can be active in one record and inactive in another.
# Target: Bromodomain adjacent to zinc finger domain protein 2B (Homo sapiens) (UniProt Q9UIF8)
# Experiment: qHTS Assay for Inhibitors of BAZ2B; further: nearly all actives have a fitted effect of over 60% in size
# Details: AlphaScreen BAZ2B-H3K14Ac peptide displacement; activity change, negative = inhibition: at 114 µM (top of the series)
# In short: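 Complex of BAZ2B and biotin-H3K14Ac (50 nM apiece) forms over 30 min at RT, then faces library compounds up to 110 uM for another 30 min; AlphaScreen beads added, 20 min dark incubation, luminescence read.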
# On the % scale 0 is the no-effect control and ±100 the full control effect; potency means the concentration at half of the fitted maximal effect; tags describe the fitted curve by direction and shape.
# Sequence of UniProt Q9UIF8 (Q9UIF8 whole entry, looked up, the tested form may be a part): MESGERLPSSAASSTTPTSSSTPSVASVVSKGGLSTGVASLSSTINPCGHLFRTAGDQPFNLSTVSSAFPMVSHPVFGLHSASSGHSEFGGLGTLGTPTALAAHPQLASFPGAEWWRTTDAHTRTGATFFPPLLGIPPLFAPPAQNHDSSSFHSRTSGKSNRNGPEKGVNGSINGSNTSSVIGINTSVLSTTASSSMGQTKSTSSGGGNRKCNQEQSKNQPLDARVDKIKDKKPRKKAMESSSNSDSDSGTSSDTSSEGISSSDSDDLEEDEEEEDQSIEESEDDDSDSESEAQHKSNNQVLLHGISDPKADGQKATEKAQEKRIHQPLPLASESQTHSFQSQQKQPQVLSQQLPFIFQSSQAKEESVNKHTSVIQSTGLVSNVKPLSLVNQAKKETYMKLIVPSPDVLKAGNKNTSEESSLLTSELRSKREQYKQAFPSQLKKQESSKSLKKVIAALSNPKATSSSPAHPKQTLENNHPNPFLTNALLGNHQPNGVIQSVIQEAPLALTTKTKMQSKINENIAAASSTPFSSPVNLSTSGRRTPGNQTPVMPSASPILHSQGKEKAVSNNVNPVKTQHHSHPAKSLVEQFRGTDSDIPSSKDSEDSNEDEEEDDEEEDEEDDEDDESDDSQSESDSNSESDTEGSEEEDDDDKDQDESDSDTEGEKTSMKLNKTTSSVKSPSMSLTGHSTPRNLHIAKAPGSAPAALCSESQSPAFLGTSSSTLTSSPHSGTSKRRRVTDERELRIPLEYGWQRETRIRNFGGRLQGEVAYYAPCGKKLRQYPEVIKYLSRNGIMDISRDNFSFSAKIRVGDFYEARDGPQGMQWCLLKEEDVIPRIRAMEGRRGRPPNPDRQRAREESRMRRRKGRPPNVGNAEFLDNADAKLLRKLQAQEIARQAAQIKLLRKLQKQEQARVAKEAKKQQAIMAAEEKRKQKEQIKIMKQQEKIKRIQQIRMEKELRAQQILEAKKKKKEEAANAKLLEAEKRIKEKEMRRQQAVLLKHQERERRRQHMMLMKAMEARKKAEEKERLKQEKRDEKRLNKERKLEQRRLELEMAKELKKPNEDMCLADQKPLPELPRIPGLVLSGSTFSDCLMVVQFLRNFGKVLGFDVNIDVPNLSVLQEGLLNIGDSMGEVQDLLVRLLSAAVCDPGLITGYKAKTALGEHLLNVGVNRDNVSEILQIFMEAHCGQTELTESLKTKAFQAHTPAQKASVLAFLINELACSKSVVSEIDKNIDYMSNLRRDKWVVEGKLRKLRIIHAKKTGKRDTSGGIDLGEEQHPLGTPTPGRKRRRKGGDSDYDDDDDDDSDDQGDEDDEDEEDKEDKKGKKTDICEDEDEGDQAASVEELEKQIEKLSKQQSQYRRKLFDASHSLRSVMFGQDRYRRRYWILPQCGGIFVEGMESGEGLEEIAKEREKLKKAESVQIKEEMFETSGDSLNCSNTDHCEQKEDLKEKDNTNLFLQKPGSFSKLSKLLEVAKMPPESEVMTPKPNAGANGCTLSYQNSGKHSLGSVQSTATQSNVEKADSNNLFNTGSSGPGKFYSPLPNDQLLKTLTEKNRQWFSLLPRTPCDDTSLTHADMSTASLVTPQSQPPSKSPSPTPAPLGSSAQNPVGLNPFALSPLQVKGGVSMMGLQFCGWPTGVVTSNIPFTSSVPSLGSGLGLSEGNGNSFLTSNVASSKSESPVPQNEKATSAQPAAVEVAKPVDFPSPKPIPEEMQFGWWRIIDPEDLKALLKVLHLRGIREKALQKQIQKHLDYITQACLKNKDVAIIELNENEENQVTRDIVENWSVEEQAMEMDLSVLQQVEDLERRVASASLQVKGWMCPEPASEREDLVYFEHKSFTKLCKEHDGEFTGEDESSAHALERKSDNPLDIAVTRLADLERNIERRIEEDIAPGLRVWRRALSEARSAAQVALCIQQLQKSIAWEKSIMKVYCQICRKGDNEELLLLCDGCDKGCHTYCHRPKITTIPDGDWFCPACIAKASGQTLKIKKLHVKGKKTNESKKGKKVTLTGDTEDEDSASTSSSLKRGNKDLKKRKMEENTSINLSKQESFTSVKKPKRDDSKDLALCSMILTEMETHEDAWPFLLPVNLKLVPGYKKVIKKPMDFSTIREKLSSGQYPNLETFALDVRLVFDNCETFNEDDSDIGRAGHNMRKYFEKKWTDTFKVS
SMILES,Potency,"activity change, negative = inhibition"
O=C1c2cccnc2C(=O)N1c1cccc([N+](=O)[O-])c1,active: 56.2 µM,–
COc1ccc(Nc2sc(C(=O)c3ccc(Cl)cc3)c(N)c2C(=O)Nc2ccccc2OC)cc1,"inconclusive: 44.7 µM [inhibitor, partial curve]",–
COc1ccc(Cn2c(SCc3ccc(C(=O)NC(C)c4ccccc4)cc3)nc3cccnc32)cc1 (stereo not given),–,inactive: 2.24%
CCCc1sc(N2CCCC(C(N)=O)C2)nc1-c1ccccc1 (stereo not given),"inconclusive: 50.1 µM [inhibitor, partial curve]",–
O=[N+]([O-])c1ccc(NC(=S)NCCc2ccc(Cl)cc2)cc1,"inconclusive: 35.5 µM [inhibitor, full curve, poor fit]",–
COc1cc(/C=C2\SC(=O)NC2=O)ccc1Oc1ccc([N+](=O)[O-])cc1[N+](=O)[O-],active: 44.7 µM,–
COc1cc(C(=O)Nc2ccc(NC(=O)c3ccccc3)nc2)cc(OC)c1OC,"inconclusive: 89.1 µM [inhibitor, single point]",–
CC1(C)c2ssc(=S)c2-c2ccccc2N1C(=O)c1ccco1,"inconclusive: 3.55 µM [inhibitor, full curve, poor fit]",–
O=C(Nc1ccc(-c2nc3cc(Cl)ccc3o2)cc1)c1cc2ccccc2o1,–,inactive: 3.43%
C=CCn1c(CC#N)nnc1N1CCOCC1,active: 50.1 µM,–
COc1ccc(OCc2cc(C(=O)NC(C)Cn3cncn3)no2)c(Cl)c1 (stereo not given),–,inactive: -6.18%
O=c1cnn(-c2ccc(Cl)cc2Cl)c(-c2ccccc2)c1,–,inactive: -34.2%
COc1ccccc1NC(=O)Cn1cc(C(=O)c2ccco2)c2ccccc21,"inconclusive: 79.4 µM [inhibitor, single point]",–
O=c1c2ccccc2nc(/C=C/c2cccnc2)n1CCc1ccccc1,active: 35.5 µM,–
CNC(=S)N/N=C/c1ccccc1OCC(=O)O,"inconclusive: 8.91 µM [inhibitor, full curve, poor fit]",–
CC1CCN(c2nc3ccc(C(=O)N4CCN(c5ccccc5)CC4)cc3s2)CC1,–,inactive: -37%
Cc1ccc(SCCNC(=S)Nc2ccc(C)cc2C)cc1,"inconclusive: 39.8 µM [inhibitor, partial curve]",–
N#Cc1ccc(CSc2nnc(Cc3cccs3)n2Cc2ccco2)cc1,active: 50.1 µM,–
COc1ccc(C2/C(=C(/O)c3ccc(C)cc3)C(=O)C(=O)N2C)c(OC)c1 (stereo not given),"inconclusive: 89.1 µM [inhibitor, single point]",–
CCn1c(-c2cc(-c3ccc(C)c(C)c3)nc3ccccc23)n[nH]c1=S,"inconclusive: 35.5 µM [inhibitor, partial curve]",–
N=C1C(c2nc3ccccc3s2)=C(O)CN1NC(=O)c1ccc([N+](=O)[O-])cc1,"inconclusive: 89.1 µM [inhibitor, partial curve, poor fit]",–
COc1ccc(NC(=O)/C(C#N)=C\c2ccc(-c3cc(C(=O)O)ccc3C)o2)cc1,active: 56.2 µM,–
CCn1c(C)nc2cc(C(=O)N/N=C(\C)c3ccccc3O)ccc21,–,inactive: -16.8%
COCCN(C(=O)CSc1nnc(-c2cccc(F)c2)n1N)c1c(N)n(CC(C)C)c(=O)[nH]c1=O,–,inactive: -8.84%

SMILES,Potency,"activity change, negative = inhibition"
CCOC(=O)c1cnn(-c2ccccc2)c1-n1cccc1C(=O)C(=O)Nc1ccc(F)cc1,"inconclusive: 79.4 µM [inhibitor, single point]",–
CC(=O)c1c(C(C)=O)c(C)n(-c2nc(-c3ccc(Br)cc3)c(C)s2)c1C,"inconclusive: 79.4 µM [inhibitor, single point]",–
Cc1ccc2nc(C)cc(OCC(=O)O)c2c1,"inconclusive: 89.1 µM [inhibitor, single point]",–
Cc1ccc(S(=O)(=O)N2[C@@H](c3ccc(Cl)cc3)C(C(=O)O)=CC[C@H]2c2ccc(Cl)c(Cl)c2)cc1,"inconclusive: 89.1 µM [inhibitor, single point]",–
Cc1ccc(S(=O)(=O)N2CCN(C(=O)c3ccc4nc[nH]c4c3)CC2)cc1,"inconclusive: 50.1 µM [inhibitor, partial curve]",–
COc1ccc(NC(=O)c2cc(C)cc(C)c2)cc1[N+](=O)[O-],"inconclusive: 79.4 µM [inhibitor, single point]",–
CCc1c(O)nc(SCC(=O)Nc2ccc(C)cc2)n(C2CCCCC2)c1=O,"inconclusive: 89.1 µM [inhibitor, single point]",–
COCCCn1c(-c2ccc(Cl)cc2)n[nH]c1=S,–,inactive: -17.2%
COc1ccc(CCC(=O)NC2CC(=O)N(c3ccc(OC)cc3)C2)cc1 (stereo not given),–,inactive: 8.21%
COc1ccc(-c2nnc(NC(=O)CS(=O)(=O)c3ccc(F)cc3)o2)cc1,"inconclusive: 89.1 µM [inhibitor, single point]",–
COc1ccccc1-c1sc2cc3c(cc2c1C#CC1(O)CCCCC1)OCO3,active: 79.4 µM,–
C/C(=N\NC(=S)NCc1ccccc1)c1ccc(Cl)cc1,"inconclusive: 44.7 µM [inhibitor, partial curve]",–
CCc1ccccc1Nc1nc(N)nc(COC(=O)c2cccn2C)n1,"inconclusive: 39.8 µM [inhibitor, partial curve]",–
CCN(CC)S(=O)(=O)c1ccc(NC(=O)CNC2CCCCC2)cc1,active: 79.4 µM,–
CCOC(=O)c1c(N)sc(C(=O)N2CCCC2)c1C,"inconclusive: 11.2 µM [inhibitor, single point]",–
O=C(O)C(=O)/C(=C\c1cccc(Cl)c1)c1ccc2ccccc2n1,active: 79.4 µM,–
CCOC(=O)/C(C#N)=C/c1cc2ccccc2nc1N1CCCCC1,"inconclusive: 89.1 µM [inhibitor, single point]",–
CCCC(c1nnnn1CCOC)N(Cc1cc2cc(C)c(C)cc2[nH]c1=O)CC1CCCO1 (stereo not given),–,inactive: -26%
O=C(CSc1nc(O)c(Cc2ccccc2)c(=O)[nH]1)Nc1nnc(SCc2ccccc2)s1,"inconclusive: 89.1 µM [inhibitor, single point]",–
FC(F)(F)c1ccc(-c2nnc(-c3ccccn3)c(-c3ccccn3)n2)nc1,"inconclusive: 79.4 µM [inhibitor, single point]",–
CCn1c(CN2CCOCC2)nnc1SCC(=O)Nc1ccccc1C,–,inactive: -15.8%
CCOc1ccc(CN(CCc2ccc3c(c2)OCO3)Cc2cc(OC)c(OC)cc2OC)cc1,active: 28.2 µM,–
COc1ccc2c(CNCCc3cccs3)c(C(=O)O)n(Cc3ccc(F)cc3Cl)c2c1,–,inactive: -22.3%
CCN1C(=O)[C@@H]2[C@@H](c3ccc(-c4ccc5c(c4)OCO5)c(OC)c3)N3CCC[C@@]3(C(=O)OC)[C@@H]2C1=O,"inconclusive: 79.4 µM [inhibitor, single point]",–

SMILES,Potency,"activity change, negative = inhibition"
CCOC(=O)c1c(NC(=O)C2C3CCC(O3)C2C(=O)O)sc2c1CCC(CC)C2 (stereo not given),"inconclusive: 79.4 µM [inhibitor, single point]",–
O=C(NNC(=O)c1ccccc1C(=O)O)c1cc2ccccc2o1,"inconclusive: 89.1 µM [inhibitor, single point]",–
COc1ccc(-c2csc(NC(=O)c3ccc(OCC(=O)N4CCOCC4)c(OC)c3)n2)cc1OC,"inconclusive: 89.1 µM [inhibitor, single point]",–
Cc1ccc(C(=O)NCCSc2ccccc2)cc1S(=O)(=O)Nc1ccccc1,"inconclusive: 89.1 µM [inhibitor, single point]",–
COc1ccc(NC(=S)NNc2ccc(S(=O)(=O)Nc3ccccc3C(=O)O)cc2[N+](=O)[O-])cc1,active: 7.08 µM,–
COC(=O)c1c(N)n(-c2ccc(OC)c(OC)c2)c2nc3ccccc3nc12,–,inactive: 1.09%
CCCSC(=S)c1c(C)[nH]n(-c2ccccc2)c1=O,"inconclusive: 31.6 µM [inhibitor, partial curve]",–
Cc1c(CC(=O)O)c(=O)oc2c(C)c3occ(-c4ccc(F)cc4)c3cc12,"inconclusive: 100 µM [inhibitor, single point]",–
COc1cc2c(cc1OC)CN(CC(=O)Nc1ccc(C)c(S(=O)(=O)N3CCOCC3)c1)CC2,"inconclusive: 70.8 µM [inhibitor, single point]",–
CC12CC(NC(=O)N1c1cccc(C(=O)N3CCCCC3)c1)c1ccccc1O2 (stereo not given),–,inactive: -11.2%
N#Cc1nc(-c2ccc(COc3ccccc3)o2)oc1N1CCCCC1,active: 5.01 µM,–
CCc1ccc(NC(=O)CS(=O)CC(=O)Nc2ccc(F)cc2F)cc1 (stereo not given),"inconclusive: 89.1 µM [inhibitor, single point]",–
O=C(OCC#CCSc1nnc(-c2cccc3ccccc23)o1)c1ccco1,active: 79.4 µM,–
O=C(O)CCNC1C=CS(=O)(=O)C1 (stereo not given),–,inactive: 3.47%
CCCC(=O)Nc1ccc(C(=O)N/N=C/c2ccc([N+](=O)[O-])o2)cc1,"inconclusive: 100 µM [inhibitor, single point]",–
Cn1cccc1-c1cc(C(=O)O)[nH]n1,"inconclusive: 89.1 µM [inhibitor, single point]",–
Cc1ccc(S(=O)(=O)N2CCC(C(=O)NNS(=O)(=O)c3ccc(Cl)cc3)CC2)cc1,"inconclusive: 39.8 µM [inhibitor, partial curve]",–
O=[N+]([O-])c1ccc(NC(=S)N2CCc3ccccc3C2)cc1,"inconclusive: 39.8 µM [inhibitor, full curve, poor fit]",–
COc1cccc(NC(=O)CN(C)C(=O)c2cccnc2Sc2ccc(C)c(C)c2)c1,–,inactive: 8.85%
CN1C(=O)C(N=Nc2ccccc2C(=O)O)N(C)C1=S (stereo not given),"inconclusive: 56.2 µM [inhibitor, partial curve]",–
COc1ccc(NCC(=O)Nc2ccc(Cl)cc2C)c(OC)c1,active: 50.1 µM,–
O=C(O)C(c1ccccc1)N1C(=O)/C(=C\c2ccc(-c3ccccc3Cl)o2)SC1=S (stereo not given),active: 17.8 µM,–
